The target of data set [1] is T1, low molecular weight (LMW) Aβ1-40 (UniProt P05067 fragment).
T1 construct: domain: Aβ1-40; primarily monomeric by SEC; also called Aβ1-40 prepared as a monomer; low molecular weight Aβ1-40
Description: Aβ detected in the SEC-purified complex (protein:Aβ 1:20) by SDS-PAGE and Sypro Ruby staining.

The target in data set [2] is T2, high molecular weight (HMW) Aβ1-40 (UniProt P05067 fragment).
T2 construct: domain: Aβ1-40; oligomeric, about 60 kDa after cross-linking; also called partially aggregated Aβ1-40; Aβ1-40 oligomers
Put plainly: size-exclusion chromatography and BS3 cross-linking with western blots.

Data set [3] deals with the molecule itself. Description: SAXS, molecular weight against reference proteins, DAMMIN and BUNCH (homodimer).
Data set [4] has as its target human Netrin-1 (recombinant) (human, UniProt O95631 25-604, limits assumed). Description: ELISA, 2.5 µg/ml βAPPs coated, netrin-1 titrated; simulated Scatchard plot.

B1: eAPP[…] (N-terminal His-Patch thioredoxin fusion with the complete ectodomain of APP695, […]) (receptor)
chain: EVPTDGNAGLLAEPQIAMFCGRLNMHMNV[here about 40 residues without letters]ANQPVTIQNWCKRGRKQCKTHPHFVIPYRCLVGEFVSDALLVPDKCKFLHQERMDVCETHLHWHTVAKETCSEKSTNLHDYGMLLPCGIDKFRGVEFVCCPLAEESDNVDSADAEEDDSDVWWGGADTDYADGSEDKVVEVAEEEEVAEVEEEEADDDEDDEDGDEVEEEAEEPYEEATERTTSIATTTTTTTESVEEVVRVPTTAASTPDAVDKYLETPGDENEHAHFQKAKERLEAKHRERMSQVMREWEEAERQAKNLPKADKKAVIQHFQEKVESLEQEAANERQQLVETHMARVEAMLNDRRRLALENYITALQAVPPRPRHVFNMLKKYVRAEQKDRQHTLKHFEHVRMVDPKKAAQIRSQVMTHLRVIYERMNQSLSLLYNVPAVAEEIQDEVDELLQKEQNYSDDVLANMISEPRISYGNDALMPSLTETKTTVELLPVNGEFSLDDLQPWHSFGADSVPANTENEVEPVDARPAADRGLTTRPGSGLTNIKTEEISEVKMDAEFRHDSGYEVHHQKLVFFAEDVGSNK
notes: Expressed in E. coli; Parallel dimer in solution by SAXS, in equilibrium with the monomer; also called full-length eAPP; eAPP[…]; not shown: N-terminal His-Patch thioredoxin fusion partner and linker (pET-102/D-TOPO, Invitrogen)
Consider B1, for which the binding result in data set [1], in data set [2] and in data set [3] was “binds” throughout.

B2: recombinant βAPPs (receptor)
chain: not shown
notes: Coated at 2.5 µg/ml in the ELISA
Turning to B2, the Kd in data set [4] is ~6 nM.

For orientation: Kd means the constant that tells how readily two partners part at equilibrium.

Source of the values: patent US20100099609A1 (BUCK INSTITUTE FOR AGE RESEARCH, published 2010).
